Assay results reported in PubChem BioAssay AID1346428 (National Center for Advancing Translational Sciences (NCATS), 2018).
The campaign covered roughly 48,000 compounds. About 1,200 (2.5%) were called active. Roughly 2% stayed inconclusive and do not appear here.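 Rule for the calls: active = activation of at least 60% and not above a set upper limit (about 1 call in 100 departs from these limits); inconclusive = activation of 40% to 60%, or above that upper limit; inactive = activation under 40%.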 Some of the results follow.

Biological target: Probable G-protein coupled receptor 32 (Homo sapiens) (UniProt O75388)
Test: qHTS for Agonists of Human Resolvin D1 Receptor DRV1; note: 0% is about no effect
Details: CHO-K1 GPR32 beta-arrestin PathHunter luminescence, 90 min; at 76.9 µM; stronger effect = higher value; zero percent set by DMSO-only wells
Summary of the method: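 Step 1: seed CHO-K1 GPR32 beta-arrestin cells, 2,500/well, overnight at 37 °C. Step 2: add compounds, 90 min at 37 °C. Step 3: detection reagent, 1 h ambient, then luminescence.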

Sequence of UniProt O75388 (O75388 whole entry, looked up): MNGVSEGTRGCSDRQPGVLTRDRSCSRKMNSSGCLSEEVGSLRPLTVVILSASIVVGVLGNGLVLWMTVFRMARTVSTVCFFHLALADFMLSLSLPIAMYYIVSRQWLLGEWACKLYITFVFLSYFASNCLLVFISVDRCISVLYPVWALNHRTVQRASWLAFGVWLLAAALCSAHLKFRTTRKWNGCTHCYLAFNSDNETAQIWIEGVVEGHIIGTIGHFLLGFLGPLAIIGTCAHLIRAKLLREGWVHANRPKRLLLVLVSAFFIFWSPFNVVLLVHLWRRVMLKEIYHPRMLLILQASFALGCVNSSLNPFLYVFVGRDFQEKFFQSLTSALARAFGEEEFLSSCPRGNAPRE

activation, inactive:
CCOC(=O)c1c(S(=O)(=O)NCC(=O)N2CCN(c3cccc(Cl)c3)CC2)c(C)n(C)c1C -0.0016%
COc1ccc(-c2nc3scc(CCNS(=O)(=O)c4c(C)noc4C)n3n2)cc1OC -15.7%
Cc1ccc(C)c(Nc2nn3c(=O)c4ccc(C(=O)NCCC5=CCCCC5)cc4nc3s2)c1 48.2%
Cc1ccc(N2CC(C(=O)NCCS(=O)(=O)N3CCN(c4ccccc4)CC3)CC2=O)cc1C (stereo unspecified) -15.4%
COc1ccc(CCNS(=O)(=O)c2cc(-c3cc(C)no3)ccc2OC)cc1OC -10.6%
CC(C)c1ccc(-c2noc(SCC(=O)N3CCN(c4ccc(F)cc4)CC3)n2)cc1 -15%
CCOc1ccc(OCc2ccc(C(=O)Nc3cc(OC)c(OC)c(OC)c3)o2)cc1 9.43%
Cc1ccc(C)c(NC(=O)N(C)CCc2c(C)nn(C)c2C)c1 -13.2%
O=C(CCc1ccccc1)N(Cc1cccnc1)c1nc2c(F)cc(F)cc2s1 -18.1%
CCOc1ccc(-c2nc(CNC(=O)NC3CCCCC3)c(C)o2)cc1 2.93%
CCN(CC)CCNc1ncnc2c1cnn2-c1cc(Cl)ccc1C -3.63%
CCNc1nc(N)nc(Oc2ccc(OCC(=O)OC)nn2)n1 -11.2%
CCOc1ccccc1C(=O)Nc1cccc2ccc(C)nc12 0.782%
CCCN(C(=O)C(=O)Nc1ccc2nc3n(c(=O)c2c1)CCCCC3)c1ccc(OCC)cc1 -7.77%
COc1cccc(CNC(=O)CSc2nc(=O)[nH]c3c2CCC3)c1 -5.47%
COc1ccc(CCNc2nc3ccc(Cl)cc3n3cnnc23)cc1OC -8.81%
Cc1cccc2nc(-c3ccc(N(C)C)cc3)c(Nc3ccc4c(c3)OCO4)n12 -22.2%
CCc1nnc(NS(=O)(=O)c2ccc(N)cc2)s1 -5.35%
Cc1ccc(NC(=O)/C=C/c2ccc(Cl)cc2)c(Br)c1 31.9%
COc1ccccc1-c1nnc(C2CCN(C(=O)c3cccc(Cl)c3)CC2)o1 -5.48%
CCOC(=O)c1ccccc1NC(=O)Cn1c(=O)n(CCC(=O)N2CCc3ccccc3C2)c(=O)c2ccccc21 -5.12%
Cc1cccc(C(c2sc3nc(-c4ccco4)nn3c2O)N2CCN(Cc3ccccc3)CC2)c1 (stereo unspecified) -20.9%
COc1cc(NC(=O)c2cc(Cl)ccc2Cl)ccc1NC(=O)c1cc2ccccc2o1 16.3%
COc1cc(C2CC(=O)c3c([nH]c(C(=O)OCc4ccc(C)cc4)c3C)C2)cc(OC)c1OC (stereo unspecified) 14.4%
Cc1ccccc1NC(=O)Cn1c(=O)n(CCCCCC(=O)NCc2ccccc2Cl)c(=O)c2sccc21 -21.6%
COCCCNC(=O)c1[nH]c2ccccc2c1Sc1ccc(C)cc1 -21.6%
CN(C)c1ccc(CNC(=O)c2cnc3sc(N4CCCC4)nn3c2=O)cc1 1.84%
CCS(=O)(=O)N1CCc2cc(C(=O)NCc3ccc(Cl)cc3)ccc21 17.7%
Cc1c(NC(=O)Cc2ccc(F)cc2)cccc1-c1nc2cccnc2s1 -11.9%
Cc1cccc(NC(=O)CSc2nc3ccc(NC(=O)COc4ccc(Cl)cc4)cc3s2)c1 12.5%
Cc1cccc(NC(=O)c2cc3c(=O)n(Cc4ccco4)ccc3nc2C)c1 -18.1%
O=C(Nc1nnc(SCc2cc(=O)c3ccccc3[nH]2)s1)c1ccccc1 32.8%
Cc1nn(-c2ccccc2)c2c1N(CC(=O)NCc1ccc(N(C)C)cc1)C(=O)CS2 3.99%
Fc1ccc(-c2nc(-c3cccs3)c(-c3cccs3)[nH]2)cc1 13.5%
Cc1ccc2cc3cc(C(=O)N4CCN(c5cccc(C(F)(F)F)c5)CC4)sc3nc2c1 4.12%
CN(c1ncnc2c1c(-c1ccccc1)cn2-c1ccc(F)cc1)C1CCCCC1 -54.9%
CCC(=O)N1CCc2cc(S(=O)(=O)CCC(=O)N3CCN(c4ccccc4Cl)CC3)ccc21 -2.62%
O=C(NCCOCCO)C(=O)Nc1c2c(nn1-c1ccc(F)cc1)CSC2 -12.6%
O=C(NCCn1cc(SCc2cccc(F)c2)c2ccccc21)c1cccc(C(F)(F)F)c1 23.5%
Cc1ccc(N(Cc2cccs2)C(=O)c2ccccc2)cc1 -43.8%
CCOC(=O)c1cc(-c2ccccc2)n(CCC(=O)Nc2ccc(C(F)(F)F)cc2)c1C -7.75%
Clc1ccccc1Cn1cccc1C1=NC(Cc2ccccc2)CO1 (stereo unspecified) -9.09%
COc1ccc(-c2nc3ccc(NS(C)(=O)=O)cc3o2)cc1 26.3%
O=C(O)c1ccc(Nc2nc(-c3ccccc3)c3cc(Br)ccc3n2)cc1 -9.83%
Cn1c(SCC(N)=O)nc2c([nH]c3ccccc32)c1=O -6.16%
Cc1cccc(NC(=O)CSc2nnc3scc(-c4ccccc4)n23)c1 -11.9%
O=C(O)c1ccccc1Nc1ccccc1 15.2%
COc1ccccc1NC(=O)c1oc2ccccc2c1NC(=O)C(C)C -5.38%
CN(C)CCN1CCN(c2cccc(Cl)c2)C1=O 5.05%
COc1cccc(-c2nnc(-c3cc4cc(Cl)ccc4oc3=O)o2)c1 4.86%
O=C1CCc2cc(S(=O)(=O)NCc3ccc(Cl)cc3)cc3c2N1CC3 5.24%
COc1cc(-c2noc(CSc3nc(-c4ccc(F)cc4)cc(=O)[nH]3)n2)cc(OC)c1OC -9.29%
O=c1c(N2CCN(c3cccc(C(F)(F)F)c3)CC2)csc2ccccc12 -10.4%
CC1CCN(S(=O)(=O)c2ccc3c(c2)c(=O)c(C(=O)NCc2ccc(Cl)cc2)cn3C)CC1 -11.2%
Cc1ccccc1CNC(=O)c1ccccc1NC(=O)c1nsc2ccccc12 -7.47%
O=C(Nc1ccc(Cl)c(C(F)(F)F)c1)C1CCCN(S(=O)(=O)c2cccc3cccnc23)C1 (stereo unspecified) -6.25%
